Experimental data reported in US9416178B2, “Jagged-binding agents and uses thereof” (OncoMed Pharmaceuticals, Inc., priority 2009, dated 2016).

Legend:
human Jagged1 [1] = target: T1, human Jagged1 (Homo sapiens, UniProt P78504); assay: FACS binding to Jagged-transfected HEK293 cells; settings: HEK293 cells expressing human Jagged1; antibody 10 μg/ml; FIG. 1
T1 construct: expression vectors encoding full-length cDNA for human Jagged1 or Jagged2; expressed in transfected cells; host or cells: HEK293
T1 sequence (P78504 34-1218): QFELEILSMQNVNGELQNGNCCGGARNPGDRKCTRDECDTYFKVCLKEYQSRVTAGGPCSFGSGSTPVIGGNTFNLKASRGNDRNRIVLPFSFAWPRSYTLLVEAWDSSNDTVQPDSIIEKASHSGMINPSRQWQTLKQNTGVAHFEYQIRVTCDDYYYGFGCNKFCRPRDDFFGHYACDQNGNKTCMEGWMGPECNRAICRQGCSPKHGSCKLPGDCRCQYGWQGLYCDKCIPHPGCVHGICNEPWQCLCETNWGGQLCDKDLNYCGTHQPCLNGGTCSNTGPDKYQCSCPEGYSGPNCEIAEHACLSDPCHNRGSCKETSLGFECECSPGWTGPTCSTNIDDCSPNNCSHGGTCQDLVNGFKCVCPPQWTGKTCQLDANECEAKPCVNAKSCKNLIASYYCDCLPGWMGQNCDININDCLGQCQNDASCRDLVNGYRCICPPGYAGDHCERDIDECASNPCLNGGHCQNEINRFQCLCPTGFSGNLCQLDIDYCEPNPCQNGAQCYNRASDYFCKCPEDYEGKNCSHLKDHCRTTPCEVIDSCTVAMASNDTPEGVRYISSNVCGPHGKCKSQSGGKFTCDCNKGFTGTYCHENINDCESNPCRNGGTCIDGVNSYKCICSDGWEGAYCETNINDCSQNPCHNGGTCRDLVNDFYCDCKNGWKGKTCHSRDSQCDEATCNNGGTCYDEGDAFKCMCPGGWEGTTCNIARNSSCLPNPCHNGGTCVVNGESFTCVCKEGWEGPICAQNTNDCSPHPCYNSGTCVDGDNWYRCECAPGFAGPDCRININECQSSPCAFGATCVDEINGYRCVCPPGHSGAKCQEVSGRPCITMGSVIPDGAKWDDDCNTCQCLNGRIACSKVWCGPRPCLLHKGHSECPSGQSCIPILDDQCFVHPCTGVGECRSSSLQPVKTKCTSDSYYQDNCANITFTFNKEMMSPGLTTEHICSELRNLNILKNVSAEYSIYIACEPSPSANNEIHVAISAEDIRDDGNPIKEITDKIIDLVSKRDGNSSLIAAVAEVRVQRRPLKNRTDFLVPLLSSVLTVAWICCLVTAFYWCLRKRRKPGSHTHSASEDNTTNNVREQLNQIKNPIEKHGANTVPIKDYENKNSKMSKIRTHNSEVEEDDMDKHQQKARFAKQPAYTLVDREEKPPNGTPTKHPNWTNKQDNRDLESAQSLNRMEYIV
Protocol: (§1) Human HEK293 cells were co-transfected with expression vectors encoding (1) full-length cDNA for human Jagged1 or Jagged2 and (2) the transfection marker GFP. Twenty-four to forty-eight hours post-transfection, cells were collected in suspension and incubated on ice with anti-Jagged antibodies (10 μg/ml unless otherwise indicated) or control IgG to detect background antibody binding. The cells were washed in PBS and bound antibodies were detected with PE-conjugated anti-human Fc secondary antibodies. Labeled cells were analyzed by flow cytometry to identify anti-Jagged antibodies that specifically recognized cell surface expression of Jagged protein. Several monoclonal antibodies that recognized Jagged1 were identified and included antibodies 64M51, 64R7 and 64R1B.

human Jagged2 [2] = target: T2, human Jagged2 (Homo sapiens, UniProt Q9Y219, E501K); assay: FACS binding to Jagged-transfected HEK293 cells; settings: HEK293 cells expressing human Jagged2; antibody 10 μg/ml; FIG. 1
T2 construct: expression vectors encoding full-length cDNA for human Jagged1 or Jagged2; expressed in transfected cells; host or cells: HEK293
T2 sequence (Q9Y219 24-1238 E501K): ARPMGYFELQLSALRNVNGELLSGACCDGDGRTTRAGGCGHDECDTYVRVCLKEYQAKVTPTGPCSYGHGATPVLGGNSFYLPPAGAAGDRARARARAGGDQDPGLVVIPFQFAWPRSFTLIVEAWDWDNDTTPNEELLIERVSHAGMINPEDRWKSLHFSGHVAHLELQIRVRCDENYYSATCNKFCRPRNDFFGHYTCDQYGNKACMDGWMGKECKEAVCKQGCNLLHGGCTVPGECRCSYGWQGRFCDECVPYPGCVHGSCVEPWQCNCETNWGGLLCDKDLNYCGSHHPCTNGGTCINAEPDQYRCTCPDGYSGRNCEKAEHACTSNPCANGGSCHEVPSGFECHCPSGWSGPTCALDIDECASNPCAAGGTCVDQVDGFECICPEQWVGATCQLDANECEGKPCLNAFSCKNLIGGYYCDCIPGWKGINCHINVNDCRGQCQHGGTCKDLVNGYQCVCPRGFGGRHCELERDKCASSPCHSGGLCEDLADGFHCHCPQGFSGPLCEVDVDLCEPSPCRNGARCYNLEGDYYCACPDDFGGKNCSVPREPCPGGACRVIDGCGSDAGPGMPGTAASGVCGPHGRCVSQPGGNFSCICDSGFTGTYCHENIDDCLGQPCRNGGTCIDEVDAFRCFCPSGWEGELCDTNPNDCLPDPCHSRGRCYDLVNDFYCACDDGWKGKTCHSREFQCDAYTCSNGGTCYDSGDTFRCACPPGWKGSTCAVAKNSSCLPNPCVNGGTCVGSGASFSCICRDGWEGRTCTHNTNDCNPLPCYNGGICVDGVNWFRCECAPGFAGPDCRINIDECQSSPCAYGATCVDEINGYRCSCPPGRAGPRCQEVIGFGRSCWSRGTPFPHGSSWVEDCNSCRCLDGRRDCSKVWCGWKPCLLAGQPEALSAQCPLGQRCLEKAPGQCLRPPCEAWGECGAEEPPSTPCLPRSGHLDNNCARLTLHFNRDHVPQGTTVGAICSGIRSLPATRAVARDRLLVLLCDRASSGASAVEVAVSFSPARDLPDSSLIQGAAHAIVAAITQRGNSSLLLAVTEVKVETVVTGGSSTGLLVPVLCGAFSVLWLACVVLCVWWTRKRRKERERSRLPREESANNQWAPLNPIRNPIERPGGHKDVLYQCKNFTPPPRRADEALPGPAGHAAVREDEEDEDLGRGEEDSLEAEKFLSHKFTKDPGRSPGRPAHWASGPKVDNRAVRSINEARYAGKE
Protocol: as §1

mouse Jagged1 = target: T3, mouse Jagged1 (Mus musculus, UniProt Q9QXX0); assay: FACS binding to Jagged-transfected HEK293 cells; settings: HEK293 cells expressing mouse Jagged1; FIG. 1
T3 construct: expressed in transfected cells; host or cells: HEK293
T3 sequence (Q9QXX0 34-1218): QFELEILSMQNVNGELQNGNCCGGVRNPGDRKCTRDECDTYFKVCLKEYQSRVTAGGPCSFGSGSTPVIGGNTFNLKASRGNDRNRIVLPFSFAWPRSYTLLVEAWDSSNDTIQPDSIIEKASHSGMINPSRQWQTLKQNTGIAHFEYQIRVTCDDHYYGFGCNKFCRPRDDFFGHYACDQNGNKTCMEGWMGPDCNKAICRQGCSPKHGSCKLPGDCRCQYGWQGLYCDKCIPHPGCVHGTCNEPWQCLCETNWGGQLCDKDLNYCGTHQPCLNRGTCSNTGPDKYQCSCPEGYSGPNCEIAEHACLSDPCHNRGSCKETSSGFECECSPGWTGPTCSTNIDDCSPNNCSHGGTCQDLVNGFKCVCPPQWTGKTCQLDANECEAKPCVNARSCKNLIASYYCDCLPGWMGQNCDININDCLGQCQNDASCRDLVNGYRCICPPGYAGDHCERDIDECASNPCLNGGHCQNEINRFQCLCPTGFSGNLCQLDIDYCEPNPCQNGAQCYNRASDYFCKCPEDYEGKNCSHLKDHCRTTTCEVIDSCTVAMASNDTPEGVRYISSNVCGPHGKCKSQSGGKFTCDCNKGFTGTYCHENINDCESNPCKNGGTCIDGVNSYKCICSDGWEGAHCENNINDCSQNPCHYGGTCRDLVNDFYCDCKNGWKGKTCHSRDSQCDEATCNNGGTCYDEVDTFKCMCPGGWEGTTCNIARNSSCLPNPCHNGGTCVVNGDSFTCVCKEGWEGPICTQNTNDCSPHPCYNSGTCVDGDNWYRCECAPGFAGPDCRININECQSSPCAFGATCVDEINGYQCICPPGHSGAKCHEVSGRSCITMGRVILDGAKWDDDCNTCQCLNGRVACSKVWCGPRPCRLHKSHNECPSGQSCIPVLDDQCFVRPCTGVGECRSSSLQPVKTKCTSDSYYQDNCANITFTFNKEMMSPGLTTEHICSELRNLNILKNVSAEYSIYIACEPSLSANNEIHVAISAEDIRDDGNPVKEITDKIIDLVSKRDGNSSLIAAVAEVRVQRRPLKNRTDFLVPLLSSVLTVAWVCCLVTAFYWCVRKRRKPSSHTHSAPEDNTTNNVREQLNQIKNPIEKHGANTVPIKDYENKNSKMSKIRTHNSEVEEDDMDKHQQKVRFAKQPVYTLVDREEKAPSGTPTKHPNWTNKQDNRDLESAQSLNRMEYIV
Protocol: (§2) FIG. 1. Identification of antibodies that bind to Jagged1 and/or Jagged2. Human HEK293 cells expressing human or mouse Jagged1 (Jag1) or Jagged2 (Jag2) and GFP were incubated with 64R1B, 64R7, 64M51 or control antibodies and phycoerythrin (PE) conjugated secondary antibody. Binding of antibodies to the Jagged-expressing cells was analyzed by flow cytometry. Shown are FACS analyses of antibody binding to the Jagged transfected cells. Binding is highlighted in each panel by the dark grey box insert.
as §1

mouse Jagged2 = target: T4, mouse Jagged2 (Mus musculus, UniProt Q9QYE5); assay: FACS binding to Jagged-transfected HEK293 cells; settings: HEK293 cells expressing mouse Jagged2; FIG. 1
T4 construct: expressed in transfected cells; host or cells: HEK293
T4 sequence (Q9QYE5 24-1247): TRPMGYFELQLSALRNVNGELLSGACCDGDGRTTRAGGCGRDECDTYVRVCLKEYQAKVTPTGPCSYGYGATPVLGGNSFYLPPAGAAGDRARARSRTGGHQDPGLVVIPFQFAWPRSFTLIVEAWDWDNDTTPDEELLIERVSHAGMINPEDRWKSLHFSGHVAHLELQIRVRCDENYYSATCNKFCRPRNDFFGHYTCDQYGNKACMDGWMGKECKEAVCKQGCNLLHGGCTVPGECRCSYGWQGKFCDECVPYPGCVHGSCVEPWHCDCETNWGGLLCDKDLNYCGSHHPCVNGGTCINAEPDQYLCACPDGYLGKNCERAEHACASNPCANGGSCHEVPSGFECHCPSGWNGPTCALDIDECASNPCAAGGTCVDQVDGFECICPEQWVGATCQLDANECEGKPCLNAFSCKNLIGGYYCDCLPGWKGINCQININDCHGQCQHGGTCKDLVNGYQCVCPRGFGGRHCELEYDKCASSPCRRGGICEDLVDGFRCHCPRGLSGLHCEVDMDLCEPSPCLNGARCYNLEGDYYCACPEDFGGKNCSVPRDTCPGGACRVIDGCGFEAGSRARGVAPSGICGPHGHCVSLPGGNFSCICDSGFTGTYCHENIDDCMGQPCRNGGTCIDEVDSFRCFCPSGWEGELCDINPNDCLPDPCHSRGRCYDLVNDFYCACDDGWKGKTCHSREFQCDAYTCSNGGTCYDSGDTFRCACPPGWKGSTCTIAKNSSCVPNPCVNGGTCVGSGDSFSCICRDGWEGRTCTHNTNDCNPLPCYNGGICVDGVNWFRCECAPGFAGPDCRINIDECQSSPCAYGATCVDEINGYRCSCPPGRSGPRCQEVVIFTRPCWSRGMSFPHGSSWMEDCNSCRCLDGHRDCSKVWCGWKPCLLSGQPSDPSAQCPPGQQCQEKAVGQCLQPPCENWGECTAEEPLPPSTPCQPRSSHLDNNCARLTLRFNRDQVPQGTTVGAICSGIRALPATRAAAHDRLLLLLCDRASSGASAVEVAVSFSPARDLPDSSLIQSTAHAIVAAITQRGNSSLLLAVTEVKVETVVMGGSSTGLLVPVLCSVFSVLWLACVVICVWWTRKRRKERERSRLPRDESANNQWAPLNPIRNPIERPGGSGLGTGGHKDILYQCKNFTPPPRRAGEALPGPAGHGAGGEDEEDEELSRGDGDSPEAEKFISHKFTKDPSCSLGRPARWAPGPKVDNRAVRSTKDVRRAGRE
Protocol: as §2, §1

human Jagged1 [3] = target: T1, human Jagged1; assay: FACS-based blocking of Notch2-Fc binding to Jagged-expressing cells; settings: HEK293 cells expressing human Jagged1, FIG. 2
Protocol: (§3) To determine the effect of anti-Jagged antibodies on Jagged ligand binding to Notch receptors, a FACS-based assay was used. Human HEK293 cells were transfected with expression vectors encoding full-length cDNA for human Jagged1 or Jagged2, along with an expression vector encoding GFP. Transfected cells were incubated with recombinant Notch2-Fc fusion protein (containing the amino acids 375-608 of human Notch2 fused to the Fc region of human IgG1) in the presence or absence of 64M51, 64R7, 64R1B and 64M14 antibodies. Cells were washed in PBS and the binding of Notch2-Fc to transfected cells was detected by incubation with PE-conjugated anti-human Fc secondary antibody and analyzed by flow cytometry as described above.

human Jagged2 [4] = target: T2, human Jagged2; assay: as above; settings: HEK293 cells expressing human Jagged2, FIG. 2
Protocol: as §3

[5] = test system: human Jagged1-induced Notch2 activation; assay: Notch-dependent luciferase reporter assay, plate-coated Jagged protein; format: cell-based; settings: PC3 cells with Notch2 and 8xCBF-luciferase; coated Jagged 400 ng per well; antibody 40 to 0.039 μg/ml; FIG. 4A
Source text: (§4) The ability of anti-Jagged antibodies to inhibit Notch activation was investigated using a Notch-dependent luciferase reporter assay. Recombinant fusion proteins containing the extracellular domain of either human Jagged1 or rat Jagged1 fused to human Fc were generated by standard recombinant methods. Fusion proteins containing the extracellular domain of either human Jagged2 or mouse Jagged2 fused to human Fc were generated by standard recombinant methods. Human PC3 cells were transfected with an expression vector encoding a full-length Notch2 receptor as well as plasmids encoding a Notch-dependent firefly luciferase reporter construct (8×CBF-luciferase) and a Renilla luciferase reporter (Promega, Madison, Wis.) as an internal control for transfection efficiency. Purified Jagged proteins were coated onto 96 well plates at 400 ng per well, and Notch2-expressing PC3-luc cells were added to the wells. 64M51, 64R7 and 64R1B antibodies were serially diluted 1:4 from 40 to 0.039 μg/ml, added to the appropriate wells and incubated overnight. Luciferase activity was determined 18 hours later using a dual luciferase assay kit (Promega, Madison, Wis.) with firefly luciferase activity normalized to Renilla luciferase activity.

[6] = test system: human Jagged2-induced Notch2 activation; assay: as above; format: cell-based; settings: PC3 cells with Notch2 and 8xCBF-luciferase; coated Jagged 400 ng per well; antibody 40 to 0.039 μg/ml; FIG. 4B
Source text: as §4

[7] = test system: mouse Jagged2-induced Notch2 activation; assay: as above; format: cell-based; settings: PC3 cells with Notch2 and 8xCBF-luciferase; coated Jagged 400 ng per well; antibody 40 to 0.039 μg/ml; FIG. 4D
Source text: as §4

[8] = test system: rat Jagged1-induced Notch2 activation; assay: as above; format: cell-based; settings: PC3 cells with Notch2 and 8xCBF-luciferase; coated Jagged 400 ng per well; antibody 40 to 0.039 μg/ml; FIG. 4C
Source text: as §4

PE13 breast tumor cells = assay: PE13 breast tumor xenograft model; format: in vivo, NOD/SCID mice; settings: FIG. 6
Protocol: PE13 breast tumor cells were injected subcutaneously into the mammary fat pads of NOD/SCID mice. 10,000 cells were injected per animal. Mice were monitored weekly and tumors were allowed to grow until they were approximately 170 mm^3. The mice were randomized into four treatment groups (n=10 mice/group) and treated with either control antibody (LZ-1, directed against bacterial lysozyme), anti-Jagged 64M51, taxol or a combination of 64M51 and taxol. Taxol was administered intraperitoneally at a dose of 7.5 mg/kg once a week and antibodies were administered intraperitoneally at a dose of 15 mg/kg twice a week.

[9] = test system: PN17 pancreatic tumor cells; assay: PN17 pancreatic tumor xenograft model; format: in vivo, NOD/SCID mice
Protocol: PN17 pancreatic tumor cells were injected subcutaneously into the flanks of NOD/SCID mice. 10,000 cells were injected per animal. Mice were monitored weekly and tumors were allowed to grow until they were approximately 145 mm^3. The mice were randomized into four treatment groups (n=10 mice/group) and treated with either control antibody (LZ-1), anti-Jagged 64M51, gemcitabine or a combination of 64M51 and gemcitabine. Gemcitabine was administered intraperitoneally at a dose of 5 mg/kg once a week and antibodies were administered intraperitoneally at a dose of 15 mg/kg twice a week.

binding to human Jagged1 (FACS) (human Jagged1 [1]): bound
binding to human Jagged2 (FACS) (human Jagged2 [2]): bound
binding to mouse Jagged1 (FACS) (mouse Jagged1): bound
binding to mouse Jagged2 (FACS) (mouse Jagged2): bound
blocking of Notch2-Fc binding to Jagged1-expressing cells (human Jagged1 [3]): blocked
blocking of Notch2-Fc binding to Jagged2-expressing cells (human Jagged2 [4]): blocked
inhibition of human Jagged1-induced Notch2 activation [5]: did not inhibit
inhibition of human Jagged2-induced Notch2 activation [6]: partial inhibition
inhibition of rat Jagged1-induced Notch2 activation [8]: did not inhibit
B1: 64M51: mouse hybridoma monoclonal anti-Jagged antibody, ATCC PTA-10468; heavy chain SEQ ID NO:1, light chain SEQ ID NO:3 (antibody)
heavy: MECSWVILFLLSGTAGVHCQVQLKQSGAELVRPGTSVKLSCKTSGYIFTSYWIHWVKQRSGQGLEWIARIYPGIGSTYYNEKFKDKATLTADKSSSTAYMQLSSLKSEDSAVYFCAKNGGFFDYWGQGTTLTVSSAKTTPPSVYPLAPGSAAQTNSMVTLGCLVKGYFPEPVTVTWNSGSLSSGVHTFPAVLQSDLYTLSSSVTVPSSTWPSQTVTCNVAHPASSTKVDKKIVPRDCGCKPCICTVPEVSSVFIFPPKPKDVLTITLTPKVTCVVVDISKDDPEVQFSWFVDDVEVHTAQTKPREEQFNSTFRSVSELPIMHQDWLNGKEFKCRVNSAAFPAPIEKTISKTKGRPKAPQVYTIPPPKEQMAKDKVSLTCMITDFFPEDITVEWQWNGQPAENYKNTQPIMDTDGSYFVYSKLNVQKSNWEAGNTFTCSVLHEGLHNHHTEKSLSHSPGK
light: MVLMLLLLWVPGSTGDIVLTQSPASLAVSLGQRATISCRASESVDSYGNSFMHWYQQKPGQPPKLLIYRASNLESGIPARFSGSGSRTDFTLTINPVEADDVATYYCQQSNEDPWTFGGGTKLEIKRADAAPTVSIFPPSSEQLTSGGASVVCFLNNFYPKDINVKWKIDGSERQNGVLNSWTDQDSKDSTYSMSSTLTLTKDEYERHNSYTCEATHKTSTSPIVKSFNRNEC
modifications: 64M51 Heavy chain; 64M51 Light chain
inhibition of mouse Jagged2-induced Notch2 activation [7]: inhibited mouse Jagged2-induced Notch2 activations, but at a higher concentration of antibody than 64R7
tumor growth, single agent relative to control antibody (PE13 breast tumor cells; antibody 15 mg/kg intraperitoneally twice a week): reduce tumor growth
tumor growth, antibody in combination with taxol (PE13 breast tumor cells; antibody 15 mg/kg twice a week plus taxol 7.5 mg/kg once a week, vs either agent alone): reduced tumor growth to a level greater that either agent alone
tumor growth, single agent ([9]; antibody 15 mg/kg twice a week or gemcitabine 5 mg/kg once a week, intraperitoneally, FIG. 7): no significant reduction in tumor growth
tumor growth, antibody in combination with gemcitabine ([9]; antibody 15 mg/kg twice a week plus gemcitabine 5 mg/kg once a week, FIG. 7B): prolonged reduction in tumor growth
